Results from the supplement of paper PMC11417369.
± gives the standard deviation of the averaged measurements. The list shows a part of the results.

Each sequence was assayed on PfAP2-EXP AP2 domain (GST-tagged) (assay: gcPBM binding intensity (ln(normalized median fluorescence intensity)); higher = stronger DNA binding).
How it was run: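 The highest Masliner-normalised natural-log median intensity across replicate spots of either probe orientation is reported as binding intensity. GST-tagged P. falciparum DNA-binding domains expressed in E. coli were applied for 1 h to an Agilent 4 × 180k array of primer-extended double-stranded 36-bp intergenic genomic probes plus negative controls, and bound protein was detected with Alexa488 anti-GST antibody and scanned at 488 nm.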

| Sequence | gcPBM binding intensity (ln) |
| --- | --- |
| TTTAAATATTTTAATACACACACGATATGTACAAAA [CACACA_site4455] | 8.52 ± 0.38 |
| ATAACATATTTCTTTTGTACTCAAAATAAAATTAAT [XGTACX_site2479] | 8.29 ± 0.33 |
| AAATATATTTTATTTTGTACTTATGTATAAAATATA [XGTACX_site914] | 8.38 ± 0.33 |
| AATTTTGTTGAGCACACACACATACATACATACATA [CACACA_site3154] | 8.72 ± 0.42 |
| ATTAAATTTCCTTGAGTGCACATTTTGTTAAAATAT | 8.875 ± 0.021 |
| ACTTTATTTTCCTGTACACACATTTGACATATTAAA [CACACA_site3378] | 9.36 ± 0.39 |
| AAAAACAAAAAAAAAACACACAATTCTAGTTATTTT [CACACA_site2767] | 8.09 ± 0.52 |
| CACCAAACTAAATGTACACACATACATAAATATAAA [CACACA_site4765] | 8.6 ± 0.45 |
| TTTTTTTTCCTAATGTGTACTAAAAATGAACAATAA [XGTACX_site5248] | 8.62 ± 0.13 |
| ATATTTTTTTCATAGACACACACAATATATCTGTTT [CACACA_site8993] | 8.63 ± 0.4 |
| AAAAAAAAGAAACACACACACATACACATAAATATA [CACACA_site3807] | 8.79 ± 0.47 |
| AACATTATTTTGTGTACACATTCGGTTATATTATAT [CACACA_site5628] | 9.15 ± 0.37 |
| TTTTTTATTTTATTTTATTTTTATTTTTTTTTTTTT [GTGCAC_negctrl_site596] | 8.21 ± 0.47 |
| ATAAAATACATATAAACACACATATAAACCGACATA [CACACA_site2477] | 8.9 ± 0.43 |
| TTTTACTTAAGACACACACACACAAAAAAAAAAAAA [CACACA_site6573] | 8.46 ± 0.59 |
| TAAACATAAATATGCACACATATACAGATATTCATA [CACACA_site5471] | 8.29 ± 0.4 |
| AGTTTTTACTCTAATGGTACAGTGCAACTAATAAAT [XGTACX_site6950] | 8.55 ± 0.099 |
| ATATATTCCATAAAGGTGCTGTTAACGTGTCAACGT [GTGCAC_site9402] | 8.62 ± 0.23 |
| TTTATGTAAAAATATAGTACATATTAAAAGATAAGA [XGTACX_site8134] | 8.71 ± 0.35 |
| TAAGTATACACATACACACACACACTAAAAAAAAAA [CACACA_site6337] | 8.6 ± 0.51 |
| TATTTTCCCTCCATATGTACTTAATTATAAGCACAT [XGTACX_site4000] | 8.61 ± 0.33 |
| TTATATTCTATTTATTGTACTTAAATATATATATAT [XGTACX_site6400] | 9.69 ± 0.16 |
| AAAAAAAAAATATACACACACACATACACATAAATA [CACACA_site3808] | 8.79 ± 0.53 |

| Sequence | gcPBM binding intensity (ln) |
| --- | --- |
| ATATATATCTTTTGTGTGCACATATATATAATATAT | 8.97 ± 0.24 |
| TATATATCGCATAAAACACACAAAAAAAAAATTAAA [CACACA_site7767] | 8.35 ± 0.59 |
| AAACGAAAAAAATGGTGTACATTAAAATGAAAATTG [XGTACX_site7040] | 8.84 ± 0.2 |
| TCTATCTTTTCCAAACGTACATTTTTTATATAAATT [XGTACX_site5352] | 8.84 ± 0.42 |
| ATTTCATTTATAAGGATATCTACTTTTTATTTTAAT [GTGCAC_negctrl_site59] | 8.39 ± 0.36 |
| TTTTTATTATTTAAATGTACATATAAATATATATAT [XGTACX_site6870] | 8.935 ± 0.021 |
| CTTACAGACATATATACACACATGTATATTTTATAT [CACACA_site549] | 8.71 ± 0.35 |
| AAGAAGAAACGGAAAAGTACAAAGAAGAAATAAGTA [XGTACX_site3680] | 9.19 ± 0.73 |
| GAGGATGCCTATGGCACACATTATAAAACTGTCGCT [CACACA_site4322] | 8.31 ± 0.4 |
| TTTTCTTTTCTCTTCTTTTTCTCCCATTATTAATCT [XGTACX_negctrl_site406] | 8.78 ± 0.58 |
| ATGTTTTTAATTTATTGTACATTAATTTGTATTATT [XGTACX_site253] | 8.8 ± 0.37 |
| ATATATAATATAAGATGTACAATAAAATCTATATAT [XGTACX_site546] | 8.61 ± 0.41 |
| ATAACTTTATTTTCCTGTACACACATTTGACATATT [XGTACX_site7192] | 9.06 ± 0.35 |
| CATAAAATTGTGAAGTGTACATATTTTTAAATATAA [XGTACX_site8986] | 8.63 ± 0.28 |
| AGAAATATCTAATTGTGTACTCAAGAAAAAGTTACG [XGTACX_site372] | 8.69 ± 0.18 |
| GGTAGTTATTATCTCCGTACTTATAAAGAAAAAAGG [XGTACX_site4674] | 8.63 ± 0.41 |
| ATATTTTATATGTTCACACATACATAAACATATTTT [CACACA_site4948] | 8.59 ± 0.32 |
| GAATAAAAATTTTAATGTACATATTTTTTATTTATA [XGTACX_site8935] | 8.35 ± 0.26 |
| TTTATTTTCATATGAACACACATATAAATATTATAA [CACACA_site7172] | 8.46 ± 0.49 |
| TACAAATATATAAAATGTACATATATATACATATTA [XGTACX_site3029] | 8.09 ± 0.21 |
| AAAAAATATAAAAAAAGTACACAAAAACTACAAAAA [XGTACX_site2677] | 8.65 ± 0.42 |
| AAAAAGAGGAAAAAGATAAAGAAATTAAAGGAGAGA [CACACA_negctrl_site423] | 8.73 ± 0.69 |
| TTTAATCATTTTATTTGTACTCATAAAAAATATAAT [XGTACX_site5537] | 8.38 ± 0.36 |

| Sequence | gcPBM binding intensity (ln) |
| --- | --- |
| ACAAAATAATTGTTTACACACCCATTTGTAATTTTA [CACACA_site3615] | 8.42 ± 0.35 |
| TCTGTAAACATATTCACACACATAAATTCGCATATA [CACACA_site1866] | 8.6 ± 0.38 |
| AAAATGAAATATGTTATATATATATATATATATATA [CACACA_negctrl_site1752] | 9.9 ± 0.4 |
| TGTATGAAAATAAATGCATGCCAAATATATATATAT [TGCATGCA_site132] | 9.95 ± 0.4 |
| GAAAATTTATATTGCACACATAGGGAATAAAAAAAA [CACACA_site2146] | 9.01 ± 0.48 |
| TATCATTGTTCATGCTTGCACTTTTGTTACTGTTCC [GTGCAC_site9425] | 8.86 ± 0.4 |
| TAATTTCCTTAAGAATGTACTTACATTTTATTATTT [XGTACX_site5998] | 8.32 ± 0.38 |
| GTTTATGTATTATTATGTACGTATCATAATATATAT [XGTACX_site2385] | 8.86 ± 0.27 |
| TAATATGAAATGTGTACACACGCACCCACAAAAAAA [CACACA_site8949] | 9.1 ± 0.21 |
| ATGGACAAGTTAAACGCACACAAATATATACAGACA [CACACA_site1652] | 9.15 ± 0.73 |
| AATGTATTAAAATTACGTACATATGCACATTTTATA [XGTACX_site5046] | 8.72 ± 0.085 |
| TACTCTTTCCAGAAGTGTACATAGAAATAATTACAT [XGTACX_site2668] | 8.39 ± 0.71 |
| TTTTTTATTTTGTGCACACACATAAAAATATAAATA [CACACA_site6497] | 8.76 ± 0.099 |
| TATAAATACATACATACACACATATATATATATATT [CACACA_site6116] | 8.46 ± 0.35 |
| TCCTAAAAAAAAAAAAAAAATGAAAAAGGAAAAAAA [CACACA_negctrl_site1646] | 8.26 ± 0.56 |
| TAAAAATAATATATTTGTACATATGTGTATACATAA [XGTACX_site741] | 8.43 ± 0.31 |
| AAAAAAAAAAAAAAAAGTACTAAATGTAAAAGAATA [XGTACX_site2164] | 8.51 ± 0.59 |
| CAAGCACAGAAACACACACACACACCGACACAGACA [CACACA_site4359] | 8.52 ± 0.47 |
| TTTTTTTTTTTTTTTTGTACATAATTATATATTTAC [XGTACX_site7540] | 8.29 ± 0.55 |
| TAGTATTATTATTATGCACACAAAAATATTTATACA [CACACA_site9219] | 8.48 ± 0.17 |
| AGCATTTCTTTTACATGTACATAATATTTTTAATAA [XGTACX_site1968] | 9.21 ± 0.42 |
| TATATATGTATGTATGCATGCCCTTTTTTAAAAAAA [TGCATGCA_site434] | 9.07 ± 0.42 |
| AAAAAAAAAAAAAAAAAAATAAAAAATAAATAAATA [CACACA_negctrl_site1498] | 8.36 ± 0.13 |

| Sequence | gcPBM binding intensity (ln) |
| --- | --- |
| AAGAAAAAACAAACATGTACACATAATTTAGTTTTT [XGTACX_site3121] | 8.37 ± 0.2 |
| CAATTAAAGAAAAACAGTACGTGTATCAAACATCCT [XGTACX_site8990] | 8.6 ± 0.47 |
| ATTTTTCCTCTCTTTTGTACTTATATATATATATAT [XGTACX_site7405] | 10.1 ± 0.24 |
| ATAAATACTTTTTGGTGTACACTTTTAAATGAAAAA [XGTACX_site3042] | 9 ± 0.11 |
| ATATGCTAATAAAATTGTACATATTATTCATATTGT [XGTACX_site2344] | 8.29 ± 0.32 |
| TGACTACATAAAATGACACACACAAACTTTAAAATT [CACACA_site9151] | 8.62 ± 0.4 |
| ATATATTTTTAGCACAGTACAATATAATTAAATATA [XGTACX_site6779] | 8.54 ± 0.39 |
| AAAAGTTGTTTATAATGTACAAGGTAGAAAAAAACA [XGTACX_site1454] | 9.04 ± 0.57 |
| TAAATGGATTGTTCAGGTACACATAAATATGATATT [XGTACX_site6963] | 8.31 ± 0.37 |
| ATATTATATAATAATGCATGCACCTTATTTTCATTT [TGCATGCA_site405] | 10.2 ± 0.44 |
| ATTATATTATTTTAAAGTACACACATATATTAATAT [XGTACX_site4769] | 8.63 ± 0.24 |
| AACAAAATAAAAATAACACACACATTTATATATATA [CACACA_site8313] | 9.13 ± 0.099 |
| TATTATATCGAACACTGTACTTTTTTATTCAACCTA [XGTACX_site493] | 8.65 ± 0.45 |
| GCCTTTTTATTTAGAACACACACAAAAAAAAAAAAA [CACACA_site8520] | 8.3 ± 0.37 |
| AATAATAAATATATATATATATATATATATATATTT [CACACA_negctrl_site786] | 8.46 ± 0.014 |
| ATATATATATATATAGTGCAAATATCTTCTTTATAA | 10.3 ± 0.3 |
| TAATAAACCAAACTAAACAATATATCAAAAAGCACA [CACACA_negctrl_site269] | 8.82 ± 0.33 |
| TTTTCAATTAATAATACACACATGTATATATTATTA [CACACA_site3311] | 8.4 ± 0.47 |
| TACAAATACATTACATGTACATATTTAATAATATCA [XGTACX_site2075] | 8.32 ± 0.11 |
| AAGAAAAATATATATATAAATAAATAAATATATATA [TGCATGCA_negctrl_site330] | 8.27 ± 0.29 |
